# Test results from the RNAGym collection of RNA variant scans (doi:10.7554/elife.90254).
# The source gives no read counts; variants with many changes may rest on few reads.
# B1: LINE1-mini (parent)
# chain: GGCAGAGCUCAACACAGCGUGGCAAAGUGGCUGUGGCUAGACUGCC
# Variants of: B1
# Assay: self-cleavage, relative activity (ratio to wild type); higher = more cleavage; in vitro, sequencing; the parent is a self-cleaving ribozyme
row,Variant,self-cleavage
1,GACCGGGCUCAAUACAGCGAGGCAAAGUAGAUGUGGCUGGACUGCC [G2A A4C A6G C13U U20A G29A C31A A39G],0.02
2,GACUGAGCUCAACACAGCGUGGCAAAGUGGGUGUGGCUAGACUGCC [G2A A4U C31G],0.04
3,GACAGGGCUCAACACAGCGGGGCAAAGUGGAUGUGGCUCGACUGCC [G2A A6G U20G C31A A39C],0.06
4,GACAGCGCUCAACACAGCGUGGCAGAGUGGCUUUGGCUAGACUGCC [G2A A6C A25G G33U],0.27
5,GACUGAGCUCAACACAGCGUUGCAAAGUGGCUGUGGCUAGACUGCC [G2A A4U G21U],0.4
6,GACAGUGCUCAACACAGCGUGGCAAAGUGGCUGUGGUAAGACUGCC [G2A A6U C37U U38A],0.4
7,GACAGGACUCAACACAGCGUGGCGAAGUGGCUGUGGCUACACUGAC [G2A A6G G7A A24G G40C C45A],0.25
8,GACCGAGCUCAACACAGCGUGGUAAAGUGGCUGUGGCUAGACUGCC [G2A A4C C23U],0.26
9,UGCAGAGCUCAACACAGCGUCGCAAAGUAGCUGUGGCUAGACUGCG [G1U G21C G29A C46G],0.24
10,GACAGAGCUCAACCCAGCGUGGCAAAGUGGCUGUGGCGACACUACC [G2A A14C U38G G40C G44A],0.09
11,UGCAGAGCUCAACACAGCGUUGAAAAGGGACUGUGGCUAGACUGCC [G1U G21U C23A U28G G30A],0.3
12,GACAGUGCUCAACACAACUUGGAAAAGUGGCUGUGGCUAGACUGCC [G2A A6U G17A G19U C23A],0.16
13,UGCAGAGCCCAACACAGCGUGGCAAAGUGGCUGUGGCGAUACUGCC [G1U U9C U38G G40U],0.02
14,GACGGAGUUCAACACAGCCUGCGAAAGUGGCUGUGGUUAGACUGCC [G2A A4G C8U G19C G22C C23G C37U],0.01
15,GACAGGGCUCAACACACCGUGGCAAAGUGGCUGUGGCUAAACUGCG [G2A A6G G17C G40A C46G],0.06
16,UGCAGAGCUCAACACAGCUUGGCCAAGCUGCUGUGGCUAGACUGCC [G1U G19U A24C U28C G29U],0.18
17,GACAGAGCUCGACACAGCGUGGAAAAGUGGCUGUGGCUACACUGGC [G2A A11G C23A G40C C45G],0.01
18,UGCAGAGCUCAACACAGCGUGGCAAAUUGGCUGUGGCUAUACUGCC [G1U G27U G40U],0.04
19,UGCAGAGCUCAACACAGCGUGGCAAACUGGCUGUGGCUAGUCUGCC [G1U G27C A41U],0.23

row,Variant,self-cleavage
1,GACAGCGCUCAACACAGCGUGGCACAGUGUCUGUGGGUAGACUGCC [G2A A6C A25C G30U C37G],0.08
2,GACCGAGCUCAACAUAGCGUGGCAAAGUGGCUGUGGUUAGACUGCC [G2A A4C C15U C37U],0.14
3,GACAGAGCUCAACGGAGCGUGGCAAAGUGGCUGUACAUAGACUGCC [G2A A14G C15G G35A G36C C37A],0.03
4,GACAGGGCCCAACACAUCGUGGCAUAGUGGCUGUGGCUAGACUGCC [G2A A6G U9C G17U A25U],0.02
5,UGCAGAGCUCAACACAGCGGGGCAAAGUGGCUUGGGCUUGACUGCC [G1U U20G G33U U34G A39U],0.02
6,GACGUAGCUCAACACAGCGUGGCGAAGUGGCUGUGGCUAGACUGCC [G2A A4G G5U A24G],0.75
7,GACGGAGCUCAACAACGCGUUGCCAAGUGGCUGUGGGUAGACUGGC [G2A A4G C15A A16C G21U A24C C37G C45G],0.22
8,UGCAGAGCUCAACACAGCGUUGCAAAGUGGUUGUGGCUAGACUGCC [G1U G21U C31U],0.1
9,GACAGAGCUCUACACAGCGUGGCAAAGUGGCUGUGGCUAAACUGCC [G2A A11U G40A],0.03
10,GACAGAGCUCUACACAGCGUGGCAAAGUGGCUGUGGCUAUACUGCC [G2A A11U G40U],0.03
11,GACAGAGCUCAACGCAGCGUGACAAAGUGGCUGUAGUUAGACUGCC [G2A A14G G22A G35A C37U],0.13
12,UGCAGAGCUCAACACAGCGUGACGAAGGGGCUGUGGCUAGACUGCC [G1U G22A A24G U28G],0.5
13,GACGGAGCUCAACACAGCGUCACAAAAUGGCUGUGGCUAGACUGCC [G2A A4G G21C G22A G27A],0.24
14,UGCAGAGCUCAACACAGCCUGGCAAAGUGGCUGUGGCUCGACUGCC [G1U G19C A39C],0
15,UGCAGAGCUCAACACAGCGGGGCAAAGUGGCUGUGGAUAGAUUGCC [G1U U20G C37A C42U],0.01
16,UGCAGAGCUCAACACAGCGUGGCAAAUUGGCUGUGGCUUGACUGCC [G1U G27U A39U],0.14
17,UGCAGAGCUCAACACAGCGGCGCAAAGUCGCUGUGGCUAGAAUGGC [G1U U20G G21C G29C C42A C45G],0.09
18,UGCAGAGCCCAACACAGCGUGGCAAAGGGGCUGUGGCUAGACUGCC [G1U U9C U28G],0.01
19,GACGGAGCUCAACACAGCGUGGCAAAGUGUCUGUGGCUAGACUGCC [G2A A4G G30U],0.66

row,Variant,self-cleavage
1,GACAGUAGUCAACACAGCGUGGCAAAGUGGCUGUGGCUAGACUAGC [G2A A6U G7A C8G G44A C45G],0.06
2,UGCAGAGCUCAACACAGCCUGGCAAAGUGGCUGUGGCCAGACAUCC [G1U G19C U38C U43A G44U],0.01
3,GACAGAGCUCAACGCAGGGUGGCAAAGUGGCUGUGGCUAGACUGCC [G2A A14G C18G],0.09
4,UGCAGAGCUCAACACAGCGUGGCAAAGUUGCUGUGGCUAGUCUGCC [G1U G29U A41U],0.2
5,UGCAGAGCUCAACACAGCGUGUCAAAGUGGCUUUGGAUAGACUGCC [G1U G22U G33U C37A],0.06
6,GACAGUGCUCAACACAGGGUGGCAAAGUGGCUGUGGCUAGACUGCC [G2A A6U C18G],0.08
7,GACAGCGCUCAACACCGCGUGGCAAGGUGACUGUGGCUAGACUGCC [G2A A6C A16C A26G G30A],0.38
8,GACAGAGCUCGACACAGCGUGGCAAACUGGCUGUGGCUAGACUGCC [G2A A11G G27C],0.04
9,GACAGAGCUCAACGCAGCGUGGUAAAGGGGCUGUGGCUAGACUGCC [G2A A14G C23U U28G],0.68
10,GACAGAGCUCAUUACAGCGUGGCAAAGUGGAUGUAGCUAGACUGCC [G2A A12U C13U C31A G35A],0.04
11,UGCAGAGCUCAACACAGCGUGGCAAAGUGGCUGUUGGUAGACUGCC [G1U G35U C37G],0.04
12,UGCAGAGCUCAACACAGCUUGGCAAAGUGGAUUUGGCUAGUCUGCC [G1U G19U C31A G33U A41U],0.03
13,GACAGAGCUCAGCACAGCGUGGCAAAGUCUCUCUGGAUAGACUGCC [G2A A12G G29C G30U G33C C37A],0.03
14,UGCAGAGCUCAACACAGCGUGGCAAAGUGUCUCUGGCUAGACUGCC [G1U G30U G33C],0.02
15,UGCAGAGCUCAACACAGCGUGCCAUAGUUGCUGUGCCUAGACUGCC [G1U G22C A25U G29U G36C],0.13
16,GACUGAGCUCAACCCAGCGUGGCAAAGUGGCUGUGGCUAGACUGCC [G2A A4U A14C],0.27
17,UGCAGAGCUCAACACAGCGUCGCAAAGCGGCUGUGGCUAGACUGAC [G1U G21C U28C C45A],0.29
18,UGCAGAGCUCAACACAGCGGGGCAAAGUGGCUGUGACUAGACUGCC [G1U U20G G36A],0.06
